In patent US20140271458A1 (AbbVie / Abbott, published 2014):

T1: Recombinant Human IL-17 (human, UniProt Q16552 20-155, limits assumed)
T1 sequence (looked up): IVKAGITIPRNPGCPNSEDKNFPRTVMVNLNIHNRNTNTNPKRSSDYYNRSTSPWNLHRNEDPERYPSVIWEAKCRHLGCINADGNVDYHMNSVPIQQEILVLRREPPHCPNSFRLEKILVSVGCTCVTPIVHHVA

B1: DVD2425 (bispecific antibody, human IgG1)
heavy: EVQLVESGGGVVQPGRSLRLSCSASGFIFSRYDMSWVRQAPGKGLEWVAYISHGGAGTYYPDSVKGRFTISRDNSKNTLFLQMDSLRPEDTGVYFCARGGVTKGYFDVWGQGTPVTVSSASTKGPSVFPLAPEVQLVQSGAEVKKPGSSVKVSCKASGGSFGGYGIGWVRQAPGQGLEWMGGITPFFGFADYAQKFQGRVTITADESTTTAYMELSGLTSDDTAVYYCARDPNEFWGGYYSTHDFDSWGQGTTVTVSS[human IgG1 constant region left out]
light: DIQMTQSPSSLSASVGDRVTITCRASGNIHNYLTWYQQTPGKAPKLLIYNAKTLADGVPSRFSGSGSGTDYTFTISSLQPEDIATYYCQHFWSIPYTFGQGTKLQITRTVAAPEIVLTQSPDFQSVTPKEKVTITCRASQDIGSELHWYQQKPDQPPKLLIKYASHSTSGVPSRFSGSGSGTDFTLTINGLEAEDAGTYYCHQTDSLPYTFGPGTKVDIKRTVAAPSVFIFPPSDEQLKSGTASVVCLLNNFYPREAKVQWKVDNALQSGNSQESVTEQDSKDSTYSLSSTLTLSKADYEKHKVYACEVTHQGLSSPVTKSFNRGEC
B2: DVD2426 (bispecific antibody, human IgG1)
heavy: EVQLVESGGGVVQPGRSLRLSCSASGFIFSRYDMSWVRQAPGKGLEWVAYISHGGAGTYYPDSVKGRFTISRDNSKNTLFLQMDSLRPEDTGVYFCARGGVTKGYFDVWGQGTPVTVSSASTKGPSVFPLAPEVQLVQSGAEVKKPGSSVKVSCKASGGSFGGYGIGWVRQAPGQGLEWMGGITPFFGFADYAQKFQGRVTITADESTTTAYMELSGLTSDDTAVYYCARDPNEFWGGYYSTHDFDSWGQGTTVTVSS[human IgG1 constant region left out]
light: DIQMTQSPSSLSASVGDRVTITCRASGNIHNYLTWYQQTPGKAPKLLIYNAKTLADGVPSRFSGSGSGTDYTFTISSLQPEDIATYYCQHFWSIPYTFGQGTKLQITRTVAAPSVFIFPPEIVLTQSPDFQSVTPKEKVTITCRASQDIGSELHWYQQKPDQPPKLLIKYASHSTSGVPSRFSGSGSGTDFTLTINGLEAEDAGTYYCHQTDSLPYTFGPGTKVDIKRTVAAPSVFIFPPSDEQLKSGTASVVCLLNNFYPREAKVQWKVDNALQSGNSQESVTEQDSKDSTYSLSSTLTLSKADYEKHKVYACEVTHQGLSSPVTKSFNRGEC

Legend:
Recombinant Human IL-1b = Recombinant Human IL-1b (human, UniProt P01584 117-269); experiment: cell-based or functional assay
UniProt P01584, sequence (P01584 117-269 limits assumed): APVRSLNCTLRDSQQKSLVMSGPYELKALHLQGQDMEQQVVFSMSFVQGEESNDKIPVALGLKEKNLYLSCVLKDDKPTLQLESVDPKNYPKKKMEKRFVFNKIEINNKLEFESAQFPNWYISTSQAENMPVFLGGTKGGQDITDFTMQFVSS

Recombinant Human IL-17 = target: T1, Recombinant Human IL-17; experiment: cell-based or functional assay

| Binder | N-Terminal VD IL-1β Neutralization Assay (IC50 nM) (Recombinant Human IL-1b) [nM] | C-Terminal VD IL17 Neutralization Assay (IC50 nM) (Recombinant Human IL-17) [nM] |
| --- | --- | --- |
| B1 | 0.018 | 0.221 |
| B2 | 0.026 | 0.071 |
